The values below come from the supplement of paper PMC10126150.

Sequences with one replicate were seen in a single cluster, so their values are uncertain.

This series deals with ATP. The experiment in a line: switch fluorescence ratio, 500 uM ATP over buffer (Cy3 cluster intensity, sum of 5 cycles each) (fold (ratio)); higher = stronger signal-on switching upon ATP binding; sequences stand for … in TCGTCGGCAGCGTCAGATGTGTATAAGAGACAGTTTTTTTTTTTTTTTTTTTTTTTTT…TC. The conditions noted are these: aptamer strand: ATP DNA aptamer (quencher-CACCTGGGGGAGTATTGCGGAGGAAGG + anchor), 100 nM annealed; ATP concentration: 500 uM; one replicate. The essentials: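 Exposure to 500 uM ATP lasted 15 min at 22 °C before imaging, and a selection-buffer image was taken beforehand, for Cy3-labelled switching-strand clusters on a modified Illumina MiSeq flow-cell annealed to 100 nM quencher-labelled ATP aptamer. Five buffer/ATP cycles were run with NaOH stripping and re-annealing between them. The fluorescence ratio per cluster is summed target-cycle over summed buffer-cycle Cy3 intensity, averaged per switch-domain sequence. Clusters outside 100-1000 RFU were excluded.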

In the case of TGTTTACC, the switch fluorescence ratio is 1.01. Under ATGGCTCTG stands 0.996; under AGCTAGATTA, 1.01. On to TCTTCATAGC, for which the switch fluorescence ratio came to 1.02. Turning to ATACCTGCGA, the switch fluorescence ratio amounted to 1.09. For the sequence AGACATTATT, the switch fluorescence ratio was found to be 0.982. The value for GATTTTGCGT was 0.974. Consider AAAGGGTAGG, for which the switch fluorescence ratio amounted to 0.991. The value for CCGTGATTGA was 1.06; that for ACGGGGCATG was 0.978. Under TGAATATATC stands 0.999; under CTTGTTACGG, 0.983. Consider TGCTGGTGCA, for which the switch fluorescence ratio was determined as 1.02. TATCTACGGT: the switch fluorescence ratio was found to be 1.08. Under AAAACAAACG stands 0.996; under ATGAAGCTCG, 0.984; under GTTAATAGG, 0.973.

Regarding GGCGCTAAGT, the switch fluorescence ratio is 0.981. Under TACGTTCTGT stands 1.01; under ATCCTGTTAC, 1.1. For TATAATGCTT, the switch fluorescence ratio was found to be 1. In the case of ACGGTTGTTG, the switch fluorescence ratio was 1.01.

Consider GGACACTCTT, for which the switch fluorescence ratio was found to be 1.02. Turning to TTCGTACGGA, the switch fluorescence ratio was found to be 0.969. For the sequence TACCCCAGCG, the switch fluorescence ratio came out at 2.86. As for TGCACCACCG, the switch fluorescence ratio amounted to 1.16.

As for TGTTGCCGG, the switch fluorescence ratio came out at 1. Under ACCATTGAGA stands 0.997; under GGTCCTGAGT, 0.984; under GCCGTGTGTA, 0.971.

As to GGGTACTGGA, the switch fluorescence ratio was 1.02.

For the sequence AATCTACCAA, the switch fluorescence ratio was found to be 1.07. Consider CGTGGTCCGT, for which the switch fluorescence ratio turned out to be 0.962. Turning to TTGGGTGTAA, the switch fluorescence ratio came to 0.99. The value for GTGTTGGGGA was 0.965; that for TGGTGTAGTC was 0.995. The value for AGTGTATGAT was 0.991. As to GGTATCACTG, the switch fluorescence ratio turned out to be 1.02. Regarding TGGGTTGCCA, the switch fluorescence ratio worked out at 0.96.

As to TGTTCTTCTG, the switch fluorescence ratio worked out at 0.977. On to AGGTATTAAG, for which the switch fluorescence ratio is 1.05. The value for TGCCCTTTTG was 1.06; that for GGACGAGGGG was 1.03; that for ACTCAATTC was 1.23. On to CGCGGAGTAA, for which the switch fluorescence ratio was 1.33. On to CCACGTTGGT, for which the switch fluorescence ratio is 0.982.

Take GATTTCCGGG: the switch fluorescence ratio worked out at 1.3. The value for TAGGGTACTG was 1.1; that for TCACATACCT was 1.64. Under GTACGGACCT stands 1.46; under ATGGCGGAGG, 1.02; under GCTGCATGG, 1.02.

Regarding CGTATTGATA, the switch fluorescence ratio was 1. The value for AACTTAGCAA was 1.51; that for GTGTCCCCAG was 1.23. Under CTAAACGCGA stands 2.63; under CGTTCACTAT, 1.03; under CGTTAATGCA, 1. GCGGACATGT: the switch fluorescence ratio came to 0.982. On to GTACTAACAA, for which the switch fluorescence ratio came out at 1.06.

As to CCTACCTCGA, the switch fluorescence ratio was found to be 1.6. The value for TTGATGTAGA was 1.02. The value for ACAGATAGTG was 0.967; that for TCGTGACCTG was 0.97. The value for AATTTATTCG was 1.02; that for GGGGTTCTAC was 1.01; that for AGAGACTGTA was 0.975. On to ACGGAAGTAC, for which the switch fluorescence ratio is 1.43. The value for AAGACAAAGG was 0.984. Under ACGTAGCG stands 1.16; under CGGCCAATGG, 1.03. ACCACCGGTT: the switch fluorescence ratio was 1.04. As for GGTGTGCAAC, the switch fluorescence ratio was found to be 0.987. Under GCTGAACGCG stands 1.02. Turning to TATCTTTTGA, the switch fluorescence ratio was 0.954.

Turning to TGGTGTGAAA, the switch fluorescence ratio amounted to 1.02.

With AGCGGTACTG, the switch fluorescence ratio stood at 1.14. With GATTGTTAT, the switch fluorescence ratio stood at 0.988. In the case of AGTGTTTGGG, the switch fluorescence ratio came to 0.971. Under CTAGCACCGG stands 1.06; under GGGGGGGA, 1.06; under TGGGGGCGCA, 0.954.

On to GCCGCACCAT, for which the switch fluorescence ratio stood at 1.11. For AAGCCTAGAG, the switch fluorescence ratio worked out at 1.02. Under GTTTTATGT stands 0.969. Under GACTATATGA stands 1.04; under ATCATGGTA, 0.992; under TGAGCCGGTA, 0.962. In the case of AGCGAATGTA, the switch fluorescence ratio was 1.05.

With AGCACTTTT, the switch fluorescence ratio was found to be 1.02. The value for AGAAGCCGGT was 0.935; that for TGAGGAGAGG was 1.02; that for GTGTAATCAC was 0.939. The value for CCATGCTTGG was 0.95; that for ATTTGTCGGG was 0.961; that for GCACCCTGTT was 0.989.

As to GTGCTTTAGA, the switch fluorescence ratio was determined as 0.967. For GATTATACCG, the switch fluorescence ratio worked out at 0.996. Consider GTTACTGACG, for which the switch fluorescence ratio was found to be 1.08. Under GGCTTGTTTG stands 1.01; under CGTATGAGAC, 1.04. Under CTGATGGGC stands 1.06; under TATTCAAGCC, 1.04; under GAAAGACCG, 1.02.

On to AATACGCGTT, for which the switch fluorescence ratio was determined as 0.98. Under AGAGGATTAG stands 1.04; under ATAGCTATAG, 1.11.

As to TTGAAGAAGC, the switch fluorescence ratio was 1.04.

GTTGCAAGCG: the switch fluorescence ratio was 0.943. On to CAAGTTATCA, for which the switch fluorescence ratio came out at 0.972.

As to GAGGGGAGCC, the switch fluorescence ratio is 0.965. Under ACCCCCCTAC stands 1.4.

GGGACGGGCC: the switch fluorescence ratio was determined as 1.01. On to GAGTGCCGCC, for which the switch fluorescence ratio is 1.03. The value for TAACGGAGA was 0.986; that for TTAGTCATCA was 0.999; that for GAGCGAGGAG was 0.957. Take CTTCTAGGTA: the switch fluorescence ratio is 1.03. As for CAAGTTGGAT, the switch fluorescence ratio turned out to be 0.996.

Take TTTCCTACTT: the switch fluorescence ratio came out at 1.17.
